Positions count from the first letter of the chain named. Where two headings read alike, the source gives them in different places.
B1: Myostatin-2xTN8-19 kc peptibody (Fc fusion)
chain: [letters of human IgG1 Fc left out]GSGSATGGSGSTASSGSGSATGQGHCTRWPWMCPPYGSGSATGGSGSTASSGSGSATGQGHCTRWPWMCPPY
B2: Myostatin-TN12-34 peptibody (Fc fusion)
chain: MAHWCEQGPWRYGNICMAYGGGGG[letters of human IgG1 Fc left out]GGGGGAHWCEQGPWRYGNICMAY
B3: Myostatin-Linear-20 peptibody (Fc fusion)
chain: MYREMSMLEGLLDVLERLQHYGGGGG[letters of human IgG1 Fc left out]
B4: mL2-7 peptibody (Fc fusion)
chain: MGAQRMEMLESLFELLKEIVPMSKAGLEGGGGG[letters of human IgG1 Fc left out]
B5: mL2-9 peptibody (Fc fusion)
chain: B4 chain with R5Q, M8L, E10D, M22K, K24Q, A25P, G26A

Tests used:
[1] = target: T1, recombinant mature myostatin (human, UniProt O14793); assay: BIAcore, myostatin immobilized
[2] = target: T1, recombinant mature myostatin; assay: KinExA solution based assay or BIAcore (not told which)
[3] = target: T1, recombinant mature myostatin; assay: cell-based or functional assay
[4] = target: T1, recombinant mature myostatin; assay: cell-based or functional assay; remark: listed apart in the source

Binder	IC50 (nM), myostatin-induced luciferase, C2C12 pMARE-luc [3] [nM]	IC50 (nM), myostatin-induced luciferase, C2C12 pMARE-luc [4] [nM]	also measured
B1	–	–	Kd [1]: ~2 nM; Kd [2]: > 1 nM
B2	~30	–	–
B3	~11	–	–
B4	–	90.2	–
B5	–	106	–

From patent publication US20150175687A1, “MYOSTATIN BINDING AGENTS” (published 2015)
